The record followed here is article PMC12136788.

First the molecules themselves.
T1: UNK ZnF1-3 (human, UniProt Q9C0B0 31-174)
T1 sequence: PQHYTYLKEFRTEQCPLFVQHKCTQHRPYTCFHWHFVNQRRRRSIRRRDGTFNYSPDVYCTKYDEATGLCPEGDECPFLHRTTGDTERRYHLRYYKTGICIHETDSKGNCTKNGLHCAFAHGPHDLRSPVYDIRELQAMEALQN

B1: chr6:15520614:15520615:+_ENSG00000008083_ENST00000341776|hu_mus|motif|central (ssRNA)
RNA: GGGAGUUCUACAGUCCGACGAUCUAGAUAUCUACGUACAAAAACUUGAACAGUUUAAUGCUAAAACAAAAUCAGUUCUCGGAAACCAGAAGAAAUUCUUCUUUAGAGCUAGUGCAAAGACAGCUUGUAUCCUACAGCAAGUACCAACAGAGGAUUGAGCAUCA
B2: chr4:99339852:99339853:+_ENSG00000138698_ENST00000453712|hu_hu|FALSE|FALSE (ssRNA)
RNA: GGGAGUUCUACAGUCCGACGAUCUGCAUGCUGUACUGUUACAUUUCCAUCUUCUACAUGUCUGUCCAGUAAAUCCAUAAGUUUUUCUACAAUCCCAUUGUCUACCAUAUGAAUACAAUUUGCAUCAUUUCUGGCAAAAUUUGCCAACAGAGGAUUGAGCAUCA
B3: chr4:19447016:19447017:-_ENSMUSG00000028228_ENSMUST00000029885|mus_mus|motif|central (ssRNA)
RNA: GGGAGUUCUACAGUCCGACGAUCUUUAUAAAAUGAUAAUCUAGAAGUUGGAAAUGCUUUUAUUUCAAAUUGCAGAAAACGGUGAAUUACUUUAAUUUGCCAGAAUCACAGCUCCUAUGAAUGGCAUUUAUAAAACUUGAUCAACAACAGAGGAUUGAGCAUCA
B4: chr10:133753640:133753641:+_ENSG00000175470_ENST00000482010|hu_hu|motif|central (ssRNA)
RNA: GGGAGUUCUACAGUCCGACGAUCAGUUUUAUCAUUUGUAGACAGUAGAAAAUGAGCAGCAUUCUGUUGUGGUAACCACCGGAUUUUAUUAAUUUUUUCCUCAAUUUCUAGACUUUUCAAAUAGUCAAACUCCGGUUCAUGACUCAACAGAGGAUUGAGCAUCA
B5: chr12:73047227:73047228:+_ENSMUSG00000034574_ENSMUST00000085299|mus_hu|motif|central (ssRNA)
RNA: GGGAGUUCUACAGUCCGACGAUCUUCAAAUCUUUUGGCAAAUUCUAGUUCAUCUUCAUUUCGGAGCAUUUCAAAAAAGUCGGAAUGCCUAUCUAAUGUUGAAUUUUCGUGUUCCCUUAAUUUAUCUAUUACAGGUUGAAUUCCCAACAGAGGAUUGAGCAUCA
B6: 86308067_86308809_1276_CDS_ENSG00000068654_ENST00000263857|human|control|control (ssRNA)
RNA: GGGAGUUCUACAGUCCGACGAUCCAUCUGGUCUCCUAGGCGACUGACUGGGCGAUACCUUGAGGGCGGCACCACCAAGAAAUCUAGAAAGAACACACUGGGAUUGAAUCUGGAUUCCAUACCAUCAUCAUCCAUUCCCGAAAACAACAGAGGAUUGAGCAUCA
B7: 99978248_99980192_1146_3pUTR_ENSG00000158417_ENST00000289371|human|control|control (ssRNA)
RNA: GGGAGUUCUACAGUCCGACGAUCCCUUUUUUCUUCUCUUUCUCUUUUUCUUCCUUUUCUCCUUUCUUUUUCUUCUUAUCUUUCUUCUUUUUGUCUCCUUCAUUGUCAUCUUCUGCAGCUGUGGGAGUCUCUGCUUUCUCUUCACAACAGAGGAUUGAGCAUCA
B8: chr1:163112212:163112213:-_ENSG00000143248_ENST00000313961|hu_hu|hu_hu_hu_mus_False|18_78 (ssRNA)
RNA: GGGAGUUCUACAGUCCGACGAUCUUUUAUUAUCAGUAAGAGUGAGUUACAUACUAGAUAAAGUAUUGGAUACAAUAAUCAGGAAACAAACACUAUUGGUCCAGAAUUUAAAACUUUUGGGAUAAAUUGCUGGCACAGGACUUACAACAGAGGAUUGAGCAUCA
B9: chr9:69870353:69870354:+_ENSMUSG00000033543_ENSMUST00000118198|mus_hu|FALSE|FALSE (ssRNA)
RNA: GGGAGUUCUACAGUCCGACGAUCUUCUACUGGAAUUCUCUGGUAUAGCACAGUGUAGUCAUUUCUGCAAUUCUAGAAUAAAUAAAAAGUCUCUUCUAUGCUUCUCUUCAAAAGCAAUGAAUAACAGAAGAUGGUGUAAAAAAGCAACAGAGGAUUGAGCAUCA
B10: 3507284_3511977_1005_3pUTR_ENSMUSG00000024908_ENSMUST00000113997|mouse|control|control (ssRNA)
RNA: GGGAGUUCUACAGUCCGACGAUCCACUGACUAUGGCCGAUUCAUUCUUCUCCUUGUGAAAAAUAUUUGACAGAAGCUGCUCAAUAAUUUCUUGCUUUUCUAGAGUGGCAAGCAGGGGGUCUGGCUCUGUACUGUUCUGAACUUCAACAGAGGAUUGAGCAUCA
B11: chr2:187370222:187370223:+_ENSG00000065548_ENST00000337859|hu_mus|FALSE|FALSE (ssRNA)
RNA: GGGAGUUCUACAGUCCGACGAUCUUUUCCUCUUCUUCCACGCGAGAAAAGACUCUAGAGUGAUUUUGGUAACAUUUGGACCUAGGGCAGAACGCUCUCUUUCAAUUAGAUCUUCUAAUGAGAUUUCAUCUUCCUUCUCUUCUUCAACAGAGGAUUGAGCAUCA
B12: chr7:141450121:141450122:+_ENSG00000106028_ENST00000265304|hu_mus|hu_hu_hu_mus_True|38_98 (ssRNA)
RNA: GGGAGUUCUACAGUCCGACGAUCUCAUCCGUUCUAUUCCUUCUCUUUUGUCUGGUCACUCAGAAAUAUAAUGUUAUCAGCUAUGAUUGUUGUUGCUUGUCGCCUCACAUUGUUUUUAUCCAUGUACUCGCCAUAGUCCACUUUCAACAGAGGAUUGAGCAUCA
B13: chr18:54278284:54278285:-_ENSG00000091164_ENST00000590954|hu_hu|FALSE|FALSE (ssRNA)
RNA: GGGAGUUCUACAGUCCGACGAUCGAAGUCAUUCAUAUUUGUUGCCUGGACUGGAGUACCAAUAAAAGUAAAAUAUGAAAUUCUUGUUGUUUCCUCUUCACCUUGAUUCGACUGAACAAAUAUAGUUACACUGUUAACAUUCUGCAACAGAGGAUUGAGCAUCA
B14: chr20:43533720:43533721:+_ENSG00000166913_ENST00000353703|hu_mus|FALSE|FALSE (ssRNA)
RNA: GGGAGUUCUACAGUCCGACGAUCAAAUGCCGUUUUGGCCAGGCUGCAGGCCUUUUCAGGAGAGUUUAGAAUCUCAUAGUAAAAGACUGAGAAAUUCAGCGCCAGGCCGAGGCGAAUCGGGUGUGUAGGCUGCAUUUCUUUCUUCAACAGAGGAUUGAGCAUCA
B15: chr18:10010065:10010066:-_ENSMUSG00000047879_ENSMUST00000092096|mus_hu|motif|central (ssRNA)
RNA: GGGAGUUCUACAGUCCGACGAUCUAGAAUAAUAGGUGGAAUACUGGAAGAAGUUUUAUCCAUGGAAUCAAACAAAUCUCGGAGGGCUGCAGUAAUAUACUGCGCUGAAGCCAUUUCCCCUGAAGCUCUCAAGGCACCUGCAUACAACAGAGGAUUGAGCAUCA
B16: 9989091_9989211_2070_3pUTR_ENSMUSG00000040396_ENSMUST00000048216|mouse|control|control (ssRNA)
RNA: GGGAGUUCUACAGUCCGACGAUCUUAGCUGAAGAUUCACAAACUGACAGGCUAAAAUUUCAUCUGCAACCAAAAUCACUAAUGUUAAAAAGUUCACUAUACAAAGAAAGCUGUAGUAAGAUGCUAACCUCCUAUCUCACUAGCCAACAGAGGAUUGAGCAUCA
B17: 100011793_100013483_2660_CDS_ENSMUSG00000023026_ENSMUST00000100203|mouse|control|control (ssRNA)
RNA: GGGAGUUCUACAGUCCGACGAUCCACAAUGCGCUCGUCAUAAAACACAGACACAGAAAACACAGCAAUUCUUCCUCGAUAGACGGUCUUUAUGGACUCCACAGCCAAUCCAGUAGCAACAAUGUCAUCGGCGUUAUGUCUUCGCAACAGAGGAUUGAGCAUCA
B18: 31483727_31486627_2202_CDS_ENSG00000113360_ENST00000513349|human|control|control (ssRNA)
RNA: GGGAGUUCUACAGUCCGACGAUCCAAAGGACCUUUAAGAUUCCAGUCAUAUAAUUCCAAAAUAUCUCUGAAUAGGAACAGUGAAAAGAGUUCAAGCCCUUUCACACAAAAAUUCUCCGGCAUCAUCUCUUCAAUGAAAUGAAUCAACAGAGGAUUGAGCAUCA
B19: chr4:76721835:76721836:+_ENSG00000138768_ENST00000264904|hu_mus|hu_hu_hu_mus_True|68_88 (ssRNA)
RNA: GGGAGUUCUACAGUCCGACGAUCGUUUGGCUGGGGUUUCUGAGACGUCUGGAAUACUAACUCAUGUUGCUAAUAAAAUCCUAGUUUCUCUAUGAAAUUCUCUUUGCCAAUCCUCUUCUCUAUUAGUUGCUUUAGUUUCUCUUUCAACAGAGGAUUGAGCAUCA
B20: 114964141_114967215_2001_CDS_ENSG00000197323_ENST00000358465|human|control|control (ssRNA)
RNA: GGGAGUUCUACAGUCCGACGAUCGCUGGUGGGACCUCGGUUUGCAUUUGCCAUAGUUGCUGUAGUAGGGCUCGUUGGGUUGAUUGUGGUGUUGUGUACCGAUACUACGGGAAAGGGUCCAGCAUGCCCUGGGUUUGAGUGUUGCAACAGAGGAUUGAGCAUCA
B21: chr18:35748043:35748044:+_ENSMUSG00000037236_ENSMUST00000166793|perfect_dup|FALSE|FALSE (ssRNA)
RNA: GGGAGUUCUACAGUCCGACGAUCUGUAUAAAAGAGUGAACACAGCUUACAGUAAAACCCUGUUUUAGGUAUCACAUAGUCUAUACCAACAGGAACAUUAGGCUGAUAUGGUCCGAUUCUAUACUCAUCGGGAAUUGUAUAAUCCAACAGAGGAUUGAGCAUCA
B22: chr11:86518203:86518204:-_ENSMUSG00000047126_ENSMUST00000103186|perfect_dup|FALSE|FALSE (ssRNA)
RNA: GGGAGUUCUACAGUCCGACGAUCGAACAGCUCCAGGUGCUCCCUCAUUUUCUGAGGCUUAAAUUUAGAGUAUAGAAUAGCUAAUUCAGUAAACAUUCCCAUGUGAGCUCGCUCAAGUCCCAGUGCUGCUUCCAACAUGGUGAUCAACAGAGGAUUGAGCAUCA

This is one part of the list.

For the experiment, the target named is T1, UNK ZnF1-3. The experiment in a line: nsRBNS (natural sequence RNA bind-n-seq); RBNS binding buffer (assumed for nsRBNS): 25 mM Tris pH 7.5, 150 mM KCl, 3 mM MgCl2, 0.01% Triton X-100, 500 ug/ml BSA, 20 U/ml SUPERase-In, 4 C; UNK is unkempt and MSI1 is Musashi-1; names of the RNAs are library labels; protein concentration not given here; high values mean tight binding.
Turning to B1, the binding signal was found to be 0.919 enrichment R. For B2 the value was 0.881 enrichment R; for B3, 1.01 enrichment R. With B4 the figure was 0.985 enrichment R; with B5, 0.558 enrichment R; with B6, 1.24 enrichment R. Turning to B7, the binding signal was 0.0845 enrichment R. The molecule B8 showed a binding signal of 1.1 enrichment R. For B9 the value was 1.16 enrichment R; for B10, 1.12 enrichment R; for B11, 0.538 enrichment R.

For B12, the binding signal turned out to be 0.372 enrichment R. On to B13, for which the binding signal was determined as 1.27 enrichment R. With B14 the figure was 1.03 enrichment R. For B15 the value was 1.43 enrichment R. As to B16, the binding signal was determined as 1.01 enrichment R.

Take B17: the binding signal stood at 1.25 enrichment R. B18 gave a binding signal of 0.931 enrichment R.

B19 showed a binding signal of 0.49 enrichment R. For B20 the value was 1.08 enrichment R. With B21 the figure was 0.418 enrichment R; with B22, 0.821 enrichment R.
